{
  "source": "paper PMC4336329",
  "about": "(PLoS ONE, 2015)",
  "note": "Among all 310,000 compounds or so, about 2,200 (0.71%) showed an effect of 50% or more. The effect is printed as a negative number. The list shows a part of the results.",
  "data": [
    {"target": "human ether-à-go-go-related gene (hERG) potassium channel (human, UniProt Q12809)", "sequence (Q12809 whole entry, looked up)": "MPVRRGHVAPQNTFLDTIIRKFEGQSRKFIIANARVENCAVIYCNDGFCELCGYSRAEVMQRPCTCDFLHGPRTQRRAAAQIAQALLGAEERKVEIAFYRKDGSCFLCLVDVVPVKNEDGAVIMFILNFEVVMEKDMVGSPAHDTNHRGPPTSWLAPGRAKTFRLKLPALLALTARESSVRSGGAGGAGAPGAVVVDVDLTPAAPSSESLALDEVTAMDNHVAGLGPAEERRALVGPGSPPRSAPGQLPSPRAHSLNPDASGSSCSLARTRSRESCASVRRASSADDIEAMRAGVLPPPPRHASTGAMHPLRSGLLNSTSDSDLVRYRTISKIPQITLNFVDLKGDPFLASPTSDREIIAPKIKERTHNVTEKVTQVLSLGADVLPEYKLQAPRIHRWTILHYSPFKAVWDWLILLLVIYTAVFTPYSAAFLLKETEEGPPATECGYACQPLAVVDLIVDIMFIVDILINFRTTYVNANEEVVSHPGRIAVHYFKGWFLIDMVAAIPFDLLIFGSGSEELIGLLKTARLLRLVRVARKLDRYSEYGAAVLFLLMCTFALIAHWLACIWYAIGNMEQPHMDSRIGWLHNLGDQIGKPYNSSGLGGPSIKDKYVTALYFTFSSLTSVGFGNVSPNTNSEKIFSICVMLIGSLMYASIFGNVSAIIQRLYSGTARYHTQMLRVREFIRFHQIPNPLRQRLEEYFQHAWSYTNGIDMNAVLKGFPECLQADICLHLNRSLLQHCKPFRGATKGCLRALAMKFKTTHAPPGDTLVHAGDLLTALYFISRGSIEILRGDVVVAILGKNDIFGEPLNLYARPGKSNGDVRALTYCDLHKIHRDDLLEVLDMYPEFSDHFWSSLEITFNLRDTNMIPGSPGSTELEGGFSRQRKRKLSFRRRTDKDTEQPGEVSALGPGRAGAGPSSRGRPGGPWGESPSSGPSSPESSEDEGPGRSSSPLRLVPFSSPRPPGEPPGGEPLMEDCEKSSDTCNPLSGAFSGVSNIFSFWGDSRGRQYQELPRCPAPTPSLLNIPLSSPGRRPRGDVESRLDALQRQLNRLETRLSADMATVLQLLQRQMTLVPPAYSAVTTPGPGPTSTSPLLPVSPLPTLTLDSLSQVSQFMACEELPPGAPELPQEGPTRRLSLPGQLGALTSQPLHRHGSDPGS", "test": "primary screen, population patch clamp on CHO cells stably expressing hERG", "units": {"hERG current change (%, negative = inhibition) at 1uM": "%"}, "values": [
      {"smiles": "CCCn1[nH]cc(SC)c(=O)c1=O", "hERG current change (%, negative = inhibition) at 1uM": -1.14},
      {"smiles": "COc1ccc(C(C)=O)cc1COC(=O)C(CO)NS(=O)(=O)c1ccc(Br)cc1", "note": "(stereo not drawn)", "hERG current change (%, negative = inhibition) at 1uM": 12.7},
      {"smiles": "Cn1c(=O)[nH]c(=O)c2c1nc(CN1CCN(c3cccc(Cl)c3)CC1)n2CCc1ccccc1", "hERG current change (%, negative = inhibition) at 1uM": 9.17},
      {"smiles": "COc1cccc(/C=N\\NC(=O)c2sc(N)nc2C)c1OC", "hERG current change (%, negative = inhibition) at 1uM": 11},
      {"smiles": "Cc1ccc2[nH]c3c(=O)n(Cc4ccncc4)cnc3c2c1", "hERG current change (%, negative = inhibition) at 1uM": 4.77},
      {"smiles": "O=C(/C=C\\c1ccco1)Oc1cccc2cccnc12", "hERG current change (%, negative = inhibition) at 1uM": -27.2},
      {"smiles": "CC(C)OC(=O)c1ccc2nc3ccccc3nc2c1", "hERG current change (%, negative = inhibition) at 1uM": 18.9},
      {"smiles": "Cc1nn(C(C)C(=O)NCc2cccs2)c(=O)c2nn(-c3ccccc3)c(C)c12", "note": "(stereo not drawn)", "hERG current change (%, negative = inhibition) at 1uM": -10.2},
      {"smiles": "COc1cccc2c(Cl)c(CC=C(Cl)Cl)c(C)nc12", "hERG current change (%, negative = inhibition) at 1uM": 19.1},
      {"smiles": "CCc1c(C)[nH]c2c1C(=O)C(CN1CCOCC1)CC2.Cl", "note": "(stereo not drawn)", "hERG current change (%, negative = inhibition) at 1uM": 2.29},
      {"smiles": "O=C(NCCc1cccs1)C12CN(Cc3ccccc3)CC1C(c1cccc([N+](=O)[O-])c1)=NO2", "note": "(stereo not drawn)", "hERG current change (%, negative = inhibition) at 1uM": 21.2},
      {"smiles": "COc1ccc(CCNC(=O)C2CCN(C(=O)c3ccc(C(C)(C)C)cc3)CC2)cc1", "hERG current change (%, negative = inhibition) at 1uM": 8.38},
      {"smiles": "CC1(C)CC(=O)N(c2cc(Cl)ccc2Cl)C(=O)C1", "hERG current change (%, negative = inhibition) at 1uM": 10.7},
      {"smiles": "COc1nc(OCCNC(=O)Nc2ccccc2)nc(N(C)C)n1", "hERG current change (%, negative = inhibition) at 1uM": -0.757},
      {"smiles": "CCC(C(=O)NCC1CCCO1)n1nc(C)c2sc3ccccc3c2c1=O", "note": "(stereo not drawn)", "hERG current change (%, negative = inhibition) at 1uM": 4.25},
      {"smiles": "Cn1c(N)c(C(=O)CSc2nn(-c3ccc(F)cc3)c(=S)s2)c(=O)n(C)c1=O", "hERG current change (%, negative = inhibition) at 1uM": 11.8},
      {"smiles": "CCOC(=O)N1CCC(N2Cc3cccc(C(=O)N4CCN(c5cccc(C)c5C)CC4)c3C2=O)CC1", "hERG current change (%, negative = inhibition) at 1uM": 0.229},
      {"smiles": "C/C(Cc1ccccc1)=N\\NC(=O)CNC(=O)c1ccccc1Cl", "hERG current change (%, negative = inhibition) at 1uM": 17.5},
      {"smiles": "CSc1ccc(S(=O)(=O)NCc2ccccc2C)cc1", "hERG current change (%, negative = inhibition) at 1uM": 6.77},
      {"smiles": "O=S(=O)(c1ccc2c(c1)OCCO2)N1CCc2ccccc21", "hERG current change (%, negative = inhibition) at 1uM": 7.04},
      {"smiles": "CCN=C(NCC)SC1CC(=O)N(c2ccc(F)cc2)C1=O", "note": "(stereo not drawn)", "hERG current change (%, negative = inhibition) at 1uM": 8.77},
      {"smiles": "CCN(CC(=O)Nc1ccccc1C(F)(F)F)C(=O)c1ccccc1Cc1ccccc1", "hERG current change (%, negative = inhibition) at 1uM": 8.08},
      {"smiles": "CS(=O)(=O)c1ccc2nc(NC(=O)c3ccccc3Cl)sc2c1", "hERG current change (%, negative = inhibition) at 1uM": 7.08},
      {"smiles": "O=C(CCCn1c(=S)[nH]c2ccsc2c1=O)NCc1ccco1", "hERG current change (%, negative = inhibition) at 1uM": 2.08},
      {"smiles": "COc1ccc(OCCOCC(O)CN2CCOCC2)cc1.Cl", "note": "(stereo not drawn)", "hERG current change (%, negative = inhibition) at 1uM": 6.96},
      {"smiles": "C=CCc1ccc(OCCCN2CCCC(C)C2)c(OC)c1.O=C(O)C(=O)O", "note": "(stereo not drawn)", "hERG current change (%, negative = inhibition) at 1uM": -36.6},
      {"smiles": "Cc1ccc(C)n1-c1nccc(-c2cccs2)n1", "hERG current change (%, negative = inhibition) at 1uM": 17.7},
      {"smiles": "CCN1CCN(P2(=O)C=C(c3ccccc3)OC(c3ccccc3)=C2)CC1", "hERG current change (%, negative = inhibition) at 1uM": -86.5},
      {"smiles": "Cc1cccc(-n2ccc(=O)c(C(=O)Nc3ccc(S(=O)(=O)Nc4nccc(C)n4)cc3)n2)c1", "hERG current change (%, negative = inhibition) at 1uM": 19.7},
      {"smiles": "O=C(CN1C(=O)NC2(CCCCCCC2)C1=O)N1CCc2ccccc2C1", "hERG current change (%, negative = inhibition) at 1uM": -1.56},
      {"smiles": "CC(C)(C)N(Cc1ccccc1)C(=O)COC(=O)c1ccccc1SCC(=O)N1CCCC1", "hERG current change (%, negative = inhibition) at 1uM": 1.28},
      {"smiles": "COc1ccc(Br)cc1CN(C)C(=O)Cc1ccc(OC)c(S(=O)(=O)N2CCOCC2)c1", "hERG current change (%, negative = inhibition) at 1uM": -3.91},
      {"smiles": "CC1(C)CC(=O)N(c2cc(Cl)cc(Cl)c2)C(=O)C1", "hERG current change (%, negative = inhibition) at 1uM": 6.38},
      {"smiles": "COc1cc(C2CC(=O)Nc3cc(C)c(C)cc32)cc(OC)c1OC", "note": "(stereo not drawn)", "hERG current change (%, negative = inhibition) at 1uM": 14.3},
      {"smiles": "O=C(O)C(=O)O.c1ccc2c(c1)ncn2CCCCOc1ccc2c(c1)CCC2", "hERG current change (%, negative = inhibition) at 1uM": 8.87},
      {"smiles": "Cc1ccccc1NS(=O)(=O)c1ccc(OCC(=O)N2CCCCC2)cc1", "hERG current change (%, negative = inhibition) at 1uM": 7.31},
      {"smiles": "Fc1ccc(C2CC(c3ccccc3)Nc3ncnn32)cc1", "note": "(stereo not drawn)", "hERG current change (%, negative = inhibition) at 1uM": -17},
      {"smiles": "COC(=O)Nc1ccc(S(=O)(=O)Nc2ncccn2)cc1", "hERG current change (%, negative = inhibition) at 1uM": 14},
      {"smiles": "CC(C)c1ccccc1NC(=S)N(C)C", "hERG current change (%, negative = inhibition) at 1uM": 11.4},
      {"smiles": "CCCCn1c(N)c(N(CC(C)C)C(=O)c2ccc(OCC3CCCO3)cc2)c(=O)[nH]c1=O", "note": "(stereo not drawn)", "hERG current change (%, negative = inhibition) at 1uM": 2.22},
      {"smiles": "CCOC(=O)/C(=C\\c1ccc([N+](=O)[O-])cc1)C(=O)c1cc(C(C)=O)c(Nc2ccccc2)s1", "hERG current change (%, negative = inhibition) at 1uM": 5.08},
      {"smiles": "Cc1ccccc1C(=O)Nc1ccc(Br)c(C)n1", "hERG current change (%, negative = inhibition) at 1uM": 11.2},
      {"smiles": "C=CCN(C(=O)CSc1nc2ccsc2c(=O)n1Cc1ccccn1)c1ccccc1", "hERG current change (%, negative = inhibition) at 1uM": -1.98},
      {"smiles": "CC1(C)CC(=O)C=C(NNC(=O)C2CCCCC2)C1", "hERG current change (%, negative = inhibition) at 1uM": 9.12},
      {"smiles": "Cc1cc(/C=C(\\C#N)C(=O)O)c(C)n1CC1CCCO1", "note": "(stereo not drawn)", "hERG current change (%, negative = inhibition) at 1uM": 10},
      {"smiles": "C=C1CCN(Cc2ccccc2)S(=O)(=O)c2ccccc21", "hERG current change (%, negative = inhibition) at 1uM": 1.59},
      {"smiles": "CCC(C)(C)n1nnnc1CN1CCc2ccccc21", "hERG current change (%, negative = inhibition) at 1uM": 15.1},
      {"smiles": "CCOc1ccc(N/C=C/C(=O)c2ccc(OC)cc2)cc1", "hERG current change (%, negative = inhibition) at 1uM": 12.3},
      {"smiles": "CC(=O)OCC1(C)CN(c2ccccc2)N(C(=O)c2ccc(F)cc2)C1=O", "note": "(stereo not drawn)", "hERG current change (%, negative = inhibition) at 1uM": -2.17},
      {"smiles": "Oc1c(Cl)cc(Cl)cc1/C=C/c1ccc2cccc(O)c2n1", "hERG current change (%, negative = inhibition) at 1uM": 14.6},
      {"smiles": "Cc1ccccc1-n1nc(C)c2c1N=C1C(Cl)=CC(Cl)=CN1C2c1ccc(C(=O)O)cc1", "note": "(stereo not drawn)", "hERG current change (%, negative = inhibition) at 1uM": 17.5},
      {"smiles": "CC(C)(O)C#Cc1ccc(CN2CCCC(CNC(=O)c3ccco3)C2)cc1", "note": "(stereo not drawn)", "hERG current change (%, negative = inhibition) at 1uM": 16.4},
      {"smiles": "Cc1ccc(C)c(-c2cc(C(=O)Nc3nccs3)c3ccccc3n2)c1", "hERG current change (%, negative = inhibition) at 1uM": -6.95},
      {"smiles": "CCOC(=O)CSc1nc2c(c(=O)n1-c1ccc(OC)cc1)SCC2", "hERG current change (%, negative = inhibition) at 1uM": -0.153},
      {"smiles": "CCCc1cc(-c2n[nH]c(=S)n2C(C)c2ccccc2)cs1", "note": "(stereo not drawn)", "hERG current change (%, negative = inhibition) at 1uM": 15},
      {"smiles": "Cc1c(C(=O)Oc2cccc3cccnc23)cccc1[N+](=O)[O-]", "hERG current change (%, negative = inhibition) at 1uM": 9.34},
      {"smiles": "CS(=O)(=O)c1nncn1-c1ccccc1", "hERG current change (%, negative = inhibition) at 1uM": 15.7}
    ]}
  ]
}
